Laboratory results published in PMC5476798.
These are yes or no findings as the source states them, for the method shown. Binding seen in cells or lysates may run through a third protein. Some entries that bind do so weakly or less than the wild type. For part of these data: Tags and fused reporters may be left off the sequences shown. Blank lines part the entries; values can stand above or below the binder they belong to.

Legend:
[1] = target: T1, _(ProtA)Mmm1 (S. cerevisiae) (UniProt P41800); experiment: pull-down; whole-cell extracts (cryo-grinding) of ProtA-Mmm1 cells, 1% digitonin; IgG-Sepharose, elution with TEV protease; SDS-PAGE and immunodetection; cells with wild-type or mutant mdm10 forms, and mdm10Δ cells (Fig. 2c, Supplementary Fig. 2c, Fig. 4c)
T1 sequence: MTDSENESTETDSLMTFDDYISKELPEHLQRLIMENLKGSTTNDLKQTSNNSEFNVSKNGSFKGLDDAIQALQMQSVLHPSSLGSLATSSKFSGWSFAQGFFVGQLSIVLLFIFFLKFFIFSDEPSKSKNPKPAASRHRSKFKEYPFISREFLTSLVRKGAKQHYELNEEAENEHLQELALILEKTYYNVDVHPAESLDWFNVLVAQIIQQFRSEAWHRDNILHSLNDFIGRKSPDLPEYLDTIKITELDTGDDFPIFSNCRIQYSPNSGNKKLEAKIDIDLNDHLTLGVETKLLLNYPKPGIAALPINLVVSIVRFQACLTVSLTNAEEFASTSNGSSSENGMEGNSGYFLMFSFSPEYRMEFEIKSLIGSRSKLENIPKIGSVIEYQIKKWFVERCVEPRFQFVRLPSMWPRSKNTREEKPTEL

[2] = target: T2, Mdm10 (mitochondrial distribution and morphology protein Mdm10), wild type (S. cerevisiae) (UniProt P18409); experiment: co-IP; mitochondria lysed with 1% digitonin; antibodies against Mdm10 coupled to protein A-Sepharose, 1 h at 4 °C; SDS-PAGE and immunodetection (Fig. 1c)
T2 sequence: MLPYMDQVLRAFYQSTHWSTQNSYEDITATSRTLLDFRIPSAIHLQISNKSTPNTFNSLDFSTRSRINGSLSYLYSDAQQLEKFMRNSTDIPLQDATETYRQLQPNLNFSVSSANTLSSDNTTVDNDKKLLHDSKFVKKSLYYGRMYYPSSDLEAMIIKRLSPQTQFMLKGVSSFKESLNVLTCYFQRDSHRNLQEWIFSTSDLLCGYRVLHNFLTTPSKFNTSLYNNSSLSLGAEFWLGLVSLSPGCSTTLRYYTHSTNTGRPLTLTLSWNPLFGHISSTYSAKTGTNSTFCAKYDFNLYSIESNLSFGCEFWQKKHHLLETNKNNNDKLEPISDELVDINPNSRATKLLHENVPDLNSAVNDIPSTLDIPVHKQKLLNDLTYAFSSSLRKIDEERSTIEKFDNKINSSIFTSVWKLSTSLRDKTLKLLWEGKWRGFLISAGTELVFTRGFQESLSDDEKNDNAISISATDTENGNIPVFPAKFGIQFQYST

[3] = target: T3, Tom7HA (S. cerevisiae) (UniProt P53507); experiment: co-IP; mitochondria with HA-tagged small Tom proteins lysed with 1% digitonin; anti-HA affinity matrix, 1 h at 4 °C; elution with SDS sample buffer, immunodetection (Fig. 4d)
T3 sequence: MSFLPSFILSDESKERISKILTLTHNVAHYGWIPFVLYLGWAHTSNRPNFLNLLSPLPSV

[4] = target: T4, _(ProtA)Sam50 (S. cerevisiae) (UniProt P53969); experiment: pull-down; whole-cell extracts of ProtA-Sam50 cells expressing wild-type or mutant mdm10 forms, 1% digitonin; IgG-Sepharose, elution with TEV protease; eluate on blue native electrophoresis, immunodetection with anti-Mdm10 (Fig. 2b, upper panel)
T4 sequence: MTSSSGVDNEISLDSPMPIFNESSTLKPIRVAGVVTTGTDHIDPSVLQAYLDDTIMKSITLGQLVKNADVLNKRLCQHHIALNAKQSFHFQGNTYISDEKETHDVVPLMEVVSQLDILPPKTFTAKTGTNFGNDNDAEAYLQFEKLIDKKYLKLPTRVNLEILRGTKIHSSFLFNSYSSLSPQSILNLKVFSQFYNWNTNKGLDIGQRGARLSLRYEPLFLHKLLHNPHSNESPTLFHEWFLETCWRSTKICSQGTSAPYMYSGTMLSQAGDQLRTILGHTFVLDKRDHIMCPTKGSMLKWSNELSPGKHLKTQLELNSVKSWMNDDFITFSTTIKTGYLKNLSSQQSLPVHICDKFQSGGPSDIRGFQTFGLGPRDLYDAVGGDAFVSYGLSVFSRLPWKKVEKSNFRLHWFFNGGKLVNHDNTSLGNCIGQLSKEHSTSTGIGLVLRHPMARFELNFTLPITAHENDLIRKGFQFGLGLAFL

[5] = target: T4, _(ProtA)Sam50 (S. cerevisiae); experiment: pull-down; whole-cell extracts of ProtA-Sam50 cells expressing wild-type or mutant mdm10 forms, 1% digitonin; IgG-Sepharose, elution with TEV protease; SDS-PAGE and immunodetection (Fig. 2a)
[6] = target: T5, Mdm10^Y296A,F298A (S. cerevisiae) (UniProt P18409); experiment: co-IP; mitochondria lysed with 1% digitonin; antibodies against Mdm10 coupled to protein A-Sepharose, 1 h at 4 °C; SDS-PAGE and immunodetection (Fig. 1c)
T5 sequence: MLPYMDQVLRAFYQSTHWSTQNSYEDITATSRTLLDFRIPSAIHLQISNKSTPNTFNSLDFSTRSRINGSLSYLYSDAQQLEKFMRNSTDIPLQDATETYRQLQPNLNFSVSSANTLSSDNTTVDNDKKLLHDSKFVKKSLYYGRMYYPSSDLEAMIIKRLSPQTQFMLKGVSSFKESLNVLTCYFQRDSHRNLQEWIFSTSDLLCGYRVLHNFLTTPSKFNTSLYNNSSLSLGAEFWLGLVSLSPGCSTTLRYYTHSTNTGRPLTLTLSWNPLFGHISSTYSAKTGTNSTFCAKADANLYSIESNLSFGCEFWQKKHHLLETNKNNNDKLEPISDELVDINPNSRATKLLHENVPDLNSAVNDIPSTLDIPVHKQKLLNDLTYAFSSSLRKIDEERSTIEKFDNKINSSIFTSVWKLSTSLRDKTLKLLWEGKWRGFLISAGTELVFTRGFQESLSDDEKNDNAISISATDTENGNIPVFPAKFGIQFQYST

[7] = target: T6, Mdm10^G144L (S. cerevisiae) (UniProt P18409); experiment: as above
T6 sequence: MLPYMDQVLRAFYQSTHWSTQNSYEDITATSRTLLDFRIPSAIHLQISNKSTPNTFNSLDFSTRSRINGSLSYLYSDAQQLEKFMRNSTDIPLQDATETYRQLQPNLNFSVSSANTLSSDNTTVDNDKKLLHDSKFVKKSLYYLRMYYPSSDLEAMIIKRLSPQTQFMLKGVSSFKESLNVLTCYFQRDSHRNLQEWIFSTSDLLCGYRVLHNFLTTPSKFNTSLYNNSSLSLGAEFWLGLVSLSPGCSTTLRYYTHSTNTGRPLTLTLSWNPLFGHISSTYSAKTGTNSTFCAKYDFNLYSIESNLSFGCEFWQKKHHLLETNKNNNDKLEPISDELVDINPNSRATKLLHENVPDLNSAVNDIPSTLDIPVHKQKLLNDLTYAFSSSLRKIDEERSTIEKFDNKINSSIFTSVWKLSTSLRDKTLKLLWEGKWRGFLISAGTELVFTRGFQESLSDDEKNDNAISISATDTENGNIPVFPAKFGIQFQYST

[8] = target: T7, Mdm10His (S. cerevisiae) (UniProt P18409); experiment: pull-down; whole-cell extracts of Mdm10His cells, 1% digitonin, 10 mM imidazole; Ni-NTA; SDS-PAGE and immunodetection; also Mdm10His mdm12Δ and Mdm10His mmm1Δ cells (Fig. 4b)
T7 sequence: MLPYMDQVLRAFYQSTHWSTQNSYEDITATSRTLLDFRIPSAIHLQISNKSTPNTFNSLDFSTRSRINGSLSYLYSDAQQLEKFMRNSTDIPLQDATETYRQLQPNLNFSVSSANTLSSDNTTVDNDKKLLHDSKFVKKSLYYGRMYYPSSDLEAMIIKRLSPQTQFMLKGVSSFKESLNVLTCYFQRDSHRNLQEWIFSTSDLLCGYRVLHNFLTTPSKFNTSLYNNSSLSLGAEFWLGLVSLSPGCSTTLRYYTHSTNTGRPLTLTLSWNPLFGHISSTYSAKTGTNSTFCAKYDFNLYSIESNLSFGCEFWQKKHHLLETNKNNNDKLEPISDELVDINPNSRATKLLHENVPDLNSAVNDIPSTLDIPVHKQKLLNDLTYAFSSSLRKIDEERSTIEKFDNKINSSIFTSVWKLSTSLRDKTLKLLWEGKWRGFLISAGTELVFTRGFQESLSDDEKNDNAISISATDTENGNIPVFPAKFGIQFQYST

B1: Mdm12 (protein, UniProt Q92328 1-271)
chain: MSFDINWSTLESDNRLNDLIRKHLNSYLQNTQLPSYVSNLRVLDFDLGKVGPAITLKEITDPLDEFYDSIREEADQETEENNDNKEDSEHICPDRTIANHEGPKDDFEAPVVMPSPNDIQFLLEVEYKGDLLVTIGADLVLNYPVEKFMTLPVKLSISDIGLHSLCIVACLSKQLFLSFLCDVSDPALDDNQTVLDPKGPILAATKPLERISIVRSMKIETEIGEQYQGQGSVLRSVGELEQFLFTIFKDFLRKELAWPSWINLDFNDGDE
- binding [1]: binds

B3: Mdm10^Y296A,F298A (protein, UniProt P18409 1-493)
chain: MLPYMDQVLRAFYQSTHWSTQNSYEDITATSRTLLDFRIPSAIHLQISNKSTPNTFNSLDFSTRSRINGSLSYLYSDAQQLEKFMRNSTDIPLQDATETYRQLQPNLNFSVSSANTLSSDNTTVDNDKKLLHDSKFVKKSLYYGRMYYPSSDLEAMIIKRLSPQTQFMLKGVSSFKESLNVLTCYFQRDSHRNLQEWIFSTSDLLCGYRVLHNFLTTPSKFNTSLYNNSSLSLGAEFWLGLVSLSPGCSTTLRYYTHSTNTGRPLTLTLSWNPLFGHISSTYSAKTGTNSTFCAKADANLYSIESNLSFGCEFWQKKHHLLETNKNNNDKLEPISDELVDINPNSRATKLLHENVPDLNSAVNDIPSTLDIPVHKQKLLNDLTYAFSSSLRKIDEERSTIEKFDNKINSSIFTSVWKLSTSLRDKTLKLLWEGKWRGFLISAGTELVFTRGFQESLSDDEKNDNAISISATDTENGNIPVFPAKFGIQFQYST
- binding [3]: binds
- binding [4]: binds

B4: Mdm10^G144L (protein, UniProt P18409 1-493)
chain: MLPYMDQVLRAFYQSTHWSTQNSYEDITATSRTLLDFRIPSAIHLQISNKSTPNTFNSLDFSTRSRINGSLSYLYSDAQQLEKFMRNSTDIPLQDATETYRQLQPNLNFSVSSANTLSSDNTTVDNDKKLLHDSKFVKKSLYYLRMYYPSSDLEAMIIKRLSPQTQFMLKGVSSFKESLNVLTCYFQRDSHRNLQEWIFSTSDLLCGYRVLHNFLTTPSKFNTSLYNNSSLSLGAEFWLGLVSLSPGCSTTLRYYTHSTNTGRPLTLTLSWNPLFGHISSTYSAKTGTNSTFCAKYDFNLYSIESNLSFGCEFWQKKHHLLETNKNNNDKLEPISDELVDINPNSRATKLLHENVPDLNSAVNDIPSTLDIPVHKQKLLNDLTYAFSSSLRKIDEERSTIEKFDNKINSSIFTSVWKLSTSLRDKTLKLLWEGKWRGFLISAGTELVFTRGFQESLSDDEKNDNAISISATDTENGNIPVFPAKFGIQFQYST
- binding [3]: no binding
- binding [4]: binds

Now from value to binder:

- binding [2]: binds
B2: Tom7 (protein, UniProt P53507 1-60)
chain: MSFLPSFILSDESKERISKILTLTHNVAHYGWIPFVLYLGWAHTSNRPNFLNLLSPLPSV

- binding [5]: binds
B5: Sam37 (protein, UniProt P50110 1-327)
chain: MVKGSVHLWGKDGKASLISVDSIALVWFIKLCTSEEAKSMVAGLQIVFSNNTDLSSDGKLPVLILDNGTKVSGYVNIVQFLHKNICTSKYEKGTDYEEDLAIVRKKDRLLEYSLLNYVDVEISRLTDYQLFLNTKNYNEYTKKLFSKLLYFPMWYNTPLQLRSQARENCEEIIGSLTLEDDEEFVESKAMESASQLAQSKTFKIAHKNKIKGKQELQQVKYNLQFDNRLQSCVSNWLAARKKLDDSVILSSDLLFLANLYVQLGLPDGNRIRSKLEQTFGSELLNSMSNKIDDFVHRPSNNLEQRDPQFREQGNVVMSLYNLACKYI

- binding [5]: binds
- binding [6]: binds
- binding [7]: binds
- binding [2]: binds
B6: Sam35 (protein, UniProt P14693 1-329)
chain: MVSSFSVPMPVKRIFDTFPLQTYAAQTDKDEAVALEIQRRSYTFTERGGGSSELTVEGTYKLGVYNVFLEANTGAALATDPWCLFVQLALCQKNGLVLPTHSQEQTPSHTCNHEMLVLSRLSNPDEALPILVEGYKKRIIRSTVAISEIMRSRILDDAEQLMYYTLLDTVLYDCWITQIIFCASDAQFMELYSCQKLSGSIVTPLDVENSLLQKLSAKSLKISLTKRNKFQFRHREIVKSMQGVYHNHHNSVNQEQVLNVLFENSKQVLLGLKDMLKSDGQPTYLHLKIASYILCITNVKEPIKLKTFVENECKELVQFAQDTLKNFVQ

- binding [8]: binds
B7: Mdm34 (Mmm2) (protein, UniProt P53083 1-459)
chain: MSFRFNEAVFGDNSFNERIREKLSTALNSPSKKKLDILKSGIKVQKVDFPTIPQLEILDLDIITQPKSLAKGICKISCKDAMLRIQTVIESNLLLINEQDTPSFTMPQLINNGSFTIPITMTFSSIELEAITNIFVKNPGIGISFNDVDLDFKFDCSVKILQSTIERRLKESMHVVFKDVLPSLIFNTSQNWFTNRGESTSTIPGKREHHHQQTTMSRNVILDGSDFQELSPINMLRLSSIVSSRSTLSLHSTVMNSLSAIPGCLERQNLYRFISRMPSLNNYYSSQSFPQPKSSTVSSKQLVKPFYCSHNLLPKTVLDSSQYDLATITKIQSRLFDRSNSNDDNAKPRRRKIKCKKTRTPSNLQSQGEQAVDDSTAIETVTSTPVQTPIPELEEQSPPYLKTTVSIRDKYVIPEKISLNLDSKKDTSKKKPFYFIGLNSQEPSNNWKWGMEDSPPPYH
